# The supplement of paper PMC10126150
# Values marked as one replicate rest on one cluster of the flow cell; about a third of the high ones do not repeat.
# System: ATP
# Experiment: switch fluorescence ratio, 500 uM ATP over buffer (Cy3 cluster intensity, sum of 5 cycles each) (fold (ratio)); higher = stronger signal-on switching upon ATP binding; sequences stand for … in TCGTCGGCAGCGTCAGATGTGTATAAGAGACAGTTTTTTTTTTTTTTTTTTTTTTTTT…TC
# Conditions: aptamer strand: ATP DNA aptamer (quencher-CACCTGGGGGAGTATTGCGGAGGAAGG + anchor), 100 nM annealed; ATP concentration: 500 uM; one replicate
# How it was run: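 Clusters with intensities outside 100-1000 RFU were excluded. The remaining Cy3-labelled switching-strand clusters on a modified Illumina MiSeq flow-cell had been annealed to 100 nM quencher-labelled ATP aptamer and imaged in selection buffer, then after 15 min with 500 uM ATP at 22 °C, for five cycles separated by NaOH stripping and re-annealing. The fluorescence ratio, averaged per switch-domain sequence, is each cluster's summed target-cycle Cy3 intensity over its summed buffer-cycle Cy3 intensity.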
# 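Further: ATP exposure 15 min at 22 °C before imaging.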
row,Sequence,switch fluorescence ratio
1,CGATACT,1.05
2,AAACCCATGT,1.03
3,CAGTAAAAAT,0.978
4,AAAAAATTC,1.02
5,TCAGCTTACC,1.12
6,TGTTGGTCA,0.996
7,CCCCCATAAG,1.6
8,CTTATACTAT,1.04
9,CTGGACTATG,0.978
10,AAAAATGAAT,1.02
11,CTGCGGCTCA,1.04
12,AGGGCGGACG,0.94
13,TGGACCCTTC,1.05
14,CCGTGCCTGT,1.04
15,GGTGCGCGCT,1.01
16,GTCGGGATTG,0.998
17,TTGTAACTTG,0.981
18,AACTTATACT,1.02
19,GAGGCCAGTG,1.15
20,GATACTTTCC,2.15
21,CGGCCGAGGC,1.06
22,TGTTGGAAAA,1.26
23,CAAAGTCCT,1.05
24,GGGCTTTCAT,1.01
25,GTGCACT,0.992
26,TAAGAATTTT,0.976

row,Sequence,switch fluorescence ratio
1,GCGTGGTGCT,1.03
2,GAGGGTAGC,0.948
3,CAATATGGA,1
4,AAAAATAGTA,0.968
5,GACAAGTTAC,1.56
6,AAGGATTGC,1.01
7,GACCTGATTA,0.999
8,TAACTCTTCT,0.992
9,CGTTACGGTC,0.935
10,TCTCTTCGGT,0.975
11,GAGTAAAAA,0.983
12,ACGAAGGTGT,1.14
13,CACTTCCGCG,1.57
14,GGAGTTAGCA,1.02
15,AGGCAGCAAC,1.23
16,AAGAGATAAT,0.978
17,TTTGATCAGG,1
18,TAAGTGTCCC,1.05
19,GGAGATTGAG,1.03
20,AACCTCGG,0.961
21,AAGGTCTGC,1.01
22,CTCTATCCTA,0.973
23,TCGGTGCAGA,1.07
24,ACACGGTGG,1
25,AGGAAATCGG,0.998
26,TAAAGCTACA,1.07

row,Sequence,switch fluorescence ratio
1,CGTTTCTTCG,0.975
2,TTCATCTATC,0.95
3,TACATCATCT,1.02
4,AATGAGGAAA,0.985
5,TGGTTGGGG,0.973
6,CTCGCCAGGA,1.15
7,AGTTGGACTC,1.01
8,ATTGCAGTCG,1.03
9,TGCAAGGCGT,0.997
10,TTAGGTTCGT,0.961
11,AAAGCTAGTG,1.01
12,CTTATGTCGA,0.953
13,ACGATGGCAT,1.53
14,AAGTACTCTC,1.3
15,TGTGCCTTTT,0.981
16,CATGCTTGAA,1.01
17,TGTGTACGTT,1.03
18,AAACGGCCAT,1.08
19,ACTGTGATTA,1.01
20,ATAAAGAGGA,1.02
21,TGAGTTGCAG,1
22,TTCGTTTAGC,0.971
23,CGACTAGAGG,0.988
24,ATCAGTTGCT,1.01
25,TTCTTTAGAT,1.04
26,GGTCCGGACA,0.978

row,Sequence,switch fluorescence ratio
1,ACTTTCCCTA,1
2,ATGTTTCTTC,0.971
3,AGTTTGAGT,0.999
4,ACGGCCCCAA,1.21
5,GTAGGCACAA,0.934
6,ATCGAGTTGT,1.02
7,GGCGTAGACA,1
8,AAAGCTAATG,0.986
9,CGGTCTTGTG,0.945
10,CGACATCGGG,0.967
11,ATATTGTA,1.03
12,ATACAAACAC,1.33
13,CCGGTAGGGG,1.05
14,TGCTGCGTCA,1
15,TATCTACCCG,1.06
16,GGTCGACCAA,0.991
17,ATCCAGTAGA,1
18,GGGATCTCGC,1.03
19,GTAAGAGTAA,0.967
20,TGGGCATACT,1.31
21,TTGAGGCTAC,2.7
22,GGTTATGTCG,0.96
23,TCGTGAGGCA,1.03
24,TGGTCGGTTT,0.988
25,GGAGAGTTAC,0.994
26,GTGGCGGTTC,1.02

row,Sequence,switch fluorescence ratio
1,AGGATCGTTT,0.984
2,CCGGTTCT,1
3,GTGTGTCAAG,1.01
4,TAATAATGTA,1.02
5,GGAGGCTTAA,1.05
6,GGGTAAAGGT,0.984
7,CAGATTGGGC,1.04
8,TCACAAGTGC,1.04
9,AGAATAGGGC,1.13
10,GTAGGATTCA,0.943
11,AAGAGTCGGT,0.972
12,TTGCTCCTGG,1.01
13,CTCTTAGGAC,0.998
14,GGCGGCCGAA,1
15,ACCTTGACTC,1.2
16,TAGCACTGAC,1.45
17,TGAGCTTCCC,1.28
18,CTGGCCGGTG,1.01
19,ACACGGGCT,0.987
20,GCGAGTGTAG,1.05
21,AAAAGAATTT,0.952
22,CGGAGGATGA,1.03
23,TTTATTGACA,1.04
24,CCTTAAAAGT,1.02
25,CATCTTGGCT,0.995
26,GGCCGCTGAA,0.999

row,Sequence,switch fluorescence ratio
1,TCGTGATCGT,1.01
2,ACTGGTTAAC,1.04
3,AAGTTTTTGA,1.01
4,GCGGTCAATT,1.19
5,AAACACTGAG,1.18
6,TGGCTTGTTG,1.01
7,AAATTTACGT,1.09
8,TTGGTTTCTG,0.977
9,TACTATTGCC,1.02
10,TGCATGGGTC,0.983
11,TTGAGAATTT,0.949
12,GGTATCATGT,0.998
13,CGTAGGCCTT,1.02
14,TAACCCGCCT,1.02
15,CATGAAGAAT,0.986
16,GTTTGGTGG,0.986
17,GAAGATCTAA,0.99
18,TTTAGATGTA,1.01
19,TAATTATTAT,0.997
20,TCGTGTCATG,0.952
21,GGAGTGCGCG,0.966
22,AGGTTCCTAT,0.991
23,CTATAAGCT,1.05
24,GATATCGGCA,1.01
25,TGGTCCAAC,0.985
26,TCGAGAAGGA,0.957

row,Sequence,switch fluorescence ratio
1,AACCACCTTC,1.3
2,AGGTCGTGCC,1.02
3,CTCGATCCTC,1.06
4,GATGTCTACT,0.997
5,CTGGCTAGGA,0.967
6,AATTCTTTAT,0.999
7,CACGGAGGGA,1.12
8,TGCTTTGTTA,1.03
9,GCTCATCTAT,1.01
10,AGGGTTCTG,1.01
11,TAAGTCTGC,0.973
12,TGAACGAGGT,1.01
13,TTCCTTCTTC,1.12
14,CGGGGGTCGC,1
15,TTGCATATTC,1.16
16,CTCCAATGCG,1.55
17,GGCGTCGACA,1.03
18,GGTAGAGAGG,0.999
19,GGTTAAAGTG,0.995
20,TTTGTGGATC,1.05
21,CGCCTGTTGT,0.995
22,TAATGGGCCG,1.11
23,GATATTCGTG,0.967
24,CCCGACATGT,1.03
25,CTGCTCTGTT,1.03
26,TTCAGGAGAG,1.02

row,Sequence,switch fluorescence ratio
1,TCTGTCTA,0.99
2,TAGTTCGCC,0.941
3,ATATAGATGT,0.974
4,TGGTCTGGGG,1.02
5,TTATTGGTT,1.05
6,TGGAATAAGA,0.999
7,TCCAGGTTGA,1.26
8,CCAGGGCACG,0.977
9,CCCGAACGGT,0.99
10,CGGTCGGACC,1
11,CTTTATTCCC,1.01
12,GGGCATCATA,0.995
13,CTGGCATTGT,1
14,ATTGACTGCC,1.17
15,TGTCAAAGA,0.985
16,TGAGCTATT,0.962
17,TAGGTGCCAT,1.02
18,TTTATTTTAC,1.06
19,AAAGTCCTTC,1.07
